Measured values taken from the supplement of paper PMC12217912.
Some of the results follow. The full chains were built here from the parent and the listed change. Inactive controls read about 0.05.

B1: TEV protease; numbered along this chain (parent)
chain: MGESLFKGPRDYNPISSSICHLTNESDGHTTSLYGIGFGPFIITNKHLFRRNNGTLVVQSLHGVFKVKDTTTLQQHLVDGRDMIIIRMPKDFPPFPQKLKFREPQREERICLVTTNFQTKSMSSMVSDTSCTFPSGDGIFWKHWIQTKDGQCGSPLVSTRDGFIVGIHSASNFTNTNNYFTSVPKNFMELLTNQEAQQWVSGWRLNADSVLWGGHKVFMVKPEEPFQPVKEATQL

Variants of: B1
Experiment: raw area under fraction-flipped curve 0-4 h after induction (AUC4h, not background-subtracted), DNA-recorder readout of cleavage of the substrate (dimensionless); higher = more cleavage of the substrate by the protease variant
Settings: temperature: 34 °C; time window: 0-4 h after rhamnose induction
Description: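 In vivo DNA recorder in E. coli TOP10(DE3) ΔrhaA at 34 °C. Each TEVp single-site mutant (parent TEVp 0) is paired with a single-site variant of the 7-mer TEVs (canonical ENLYFQ|S). The substrate sits between flexible linkers in a Bxb1-sfGFP-TEVs-SsrA fusion, so cleavage stabilises Bxb1 and speeds flipping of a recombination array, read by NGS. The value is the raw area under the fraction-flipped curve over 0-4 h after rhamnose induction (AUC4h), with ≥20 reads per time point. It is not background-subtracted; inactive controls average about 0.047.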
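Also: Bxb1 expression induced with 0.2% (w/v) L-rhamnose at OD600 near 0.5, cultures sampled hourly, flipped fraction per protease–substrate barcode pair counted by paired-end Illumina sequencing.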

Row | Variant | area with substrate ENLYFAS | area with substrate ENLYFCS | area with substrate ENLYFDS | area with substrate ENLYFES | area with substrate ENLYFFS | area with substrate ENLYFGS | area with substrate ENLYFHS | area with substrate ENLYFIS | area with substrate ENLYFKS | area with substrate ENLYFMS | area with substrate ENLYFNS | area with substrate ENLYFPS | area with substrate ENLYFRS | area with substrate ENLYFTS | area with substrate ENLYFWS | area with substrate ENLYFLS | area with substrate ENLYFSS | area with substrate ENLYFVS | area with substrate ENLYFYS
1 | S32D | 0.0594 | 0.0661 | 0.0484 | 0.0634 | 0.057 | 0.0618 | 0.0236 | 0.0489 | 0.0529 | 0.0561 | 0.0303 | 0.0449 | 0.0475 | 0.0556 | 0.0576 | – | – | – | –
2 | S32E | 0.0575 | 0.0486 | 0.061 | – | 0.0832 | 0.0581 | – | 0.0594 | 0.0648 | 0.0663 | 0.0699 | 0.0572 | 0.0563 | 0.059 | – | 0.0641 | 0.0671 | 0.0631 | 0.0725
3 | S32G | 0.0565 | 0.0456 | 0.0611 | 0.0524 | 0.0668 | 0.0725 | – | 0.0647 | 0.0677 | 0.0587 | 0.0633 | 0.05 | – | 0.0554 | 0.0579 | 0.0473 | 0.0608 | – | 0.0607
4 | S32L | 0.0543 | 0.0275 | 0.0507 | 0.075 | 0.0806 | 0.0855 | 0.0511 | 0.0543 | 0.0474 | 0.0765 | 0.0643 | 0.052 | 0.068 | 0.0456 | 0.0598 | 0.0611 | 0.0675 | 0.0463 | 0.0614
5 | S32M | 0.0783 | – | – | 0.0574 | – | 0.0569 | 0.0563 | 0.047 | 0.0632 | 0.0702 | 0.0745 | – | 0.0447 | – | 0.0507 | – | 0.0596 | – | 0.0655
6 | S32Q | 0.0534 | – | – | 0.0813 | 0.0841 | 0.0389 | 0.0814 | 0.0647 | 0.0428 | 0.0629 | 0.065 | 0.0513 | – | – | 0.0574 | – | 0.0615 | 0.0463 | –
7 | S32R | 0.0634 | – | 0.0492 | 0.0651 | 0.0626 | – | 0.0533 | 0.0541 | 0.0446 | 0.0561 | 0.0754 | 0.064 | 0.0739 | 0.0554 | 0.0432 | – | 0.0431 | – | 0.063
8 | S32W | 0.0597 | 0.0702 | 0.0691 | 0.0792 | 0.0593 | 0.0503 | 0.0631 | 0.0536 | – | 0.0618 | 0.0738 | 0.0597 | 0.0546 | – | 0.053 | – | 0.0605 | 0.0262 | –
9 | L33N | 0.0573 | 0.0645 | 0.0508 | 0.11 | 0.0617 | – | 0.0519 | 0.055 | 0.0482 | 0.0565 | 0.0648 | 0.053 | 0.0666 | 0.0666 | – | 0.0683 | 0.0615 | 0.0548 | 0.0723
10 | G39A | 0.0617 | – | 0.0596 | 0.0386 | 0.0383 | – | 0.049 | 0.0352 | 0.0365 | 0.0347 | 0.0435 | 0.0442 | 0.047 | 0.0659 | 0.0333 | 0.0331 | – | – | –
11 | P40C | 0.0574 | 0.0093 | 0.0597 | 0.068 | 0.0706 | 0.0521 | 0.0468 | 0.0558 | 0.0846 | 0.0579 | 0.0713 | 0.0645 | 0.0669 | 0.056 | 0.0593 | – | 0.0478 | 0.0607 | 0.0628
12 | P40D | 0.0733 | 0.0585 | – | 0.0766 | 0.0668 | – | – | 0.0667 | 0.0289 | 0.0447 | 0.0664 | 0.0609 | 0.0492 | 0.0622 | 0.0458 | – | 0.056 | 0.0565 | 0.0146
13 | P40F | 0.0639 | 0.0465 | 0.0522 | 0.0672 | 0.0832 | – | – | 0.0602 | 0.0617 | 0.0691 | 0.074 | 0.0591 | 0.0464 | 0.0458 | 0.0453 | 0.0652 | 0.0442 | – | 0.0944
14 | P40G | 0.0703 | 0.0596 | 0.0535 | 0.0644 | 0.0615 | – | 0.0619 | 0.0582 | 0.064 | 0.0706 | 0.0657 | 0.0605 | 0.0919 | 0.0734 | 0.0541 | 0.049 | 0.0689 | – | 0.0557
15 | P40I | 0.0518 | 0.0573 | 0.0437 | 0.0547 | 0.0591 | 0.0395 | – | 0.0529 | 0.0561 | 0.0616 | 0.0624 | 0.0565 | 0.0483 | 0.0497 | – | – | – | – | –
16 | P40K | 0.0609 | 0.0572 | 0.0587 | 0.0762 | 0.061 | – | 0.0649 | 0.0477 | 0.0589 | 0.0581 | 0.0804 | 0.0674 | 0.0623 | 0.02 | 0.0714 | 0.0592 | 0.0573 | – | –
17 | P40L | 0.0556 | 0.0458 | – | 0.0234 | 0.0698 | – | 0.0575 | 0.067 | – | 0.0594 | – | 0.0582 | – | 0.0544 | – | – | 0.0677 | – | 0.0505
18 | P40N | 0.0753 | – | – | 0.0547 | 0.0569 | 0.0652 | 0.0805 | 0.0513 | 0.0558 | 0.0634 | 0.0695 | 0.0678 | 0.062 | – | 0.0533 | 0.0667 | 0.0388 | 0.0571 | –
19 | P40S | 0.0625 | 0.0602 | – | 0.0743 | 0.0631 | – | 0.0773 | 0.0604 | 0.0749 | 0.0682 | 0.0559 | 0.0705 | 0.0659 | 0.0615 | 0.0518 | 0.0565 | 0.0548 | 0.0591 | 0.0558
20 | P40T | 0.0431 | 0.0663 | – | 0.0605 | 0.0464 | 0.0451 | 0.0599 | 0.0612 | – | 0.0623 | 0.0297 | 0.057 | 0.069 | 0.0622 | 0.0709 | 0.0533 | – | 0.0628 | 0.055
21 | I43K | 0.0449 | – | 0.0483 | 0.063 | 0.0586 | – | 0.0391 | 0.0461 | – | 0.0499 | 0.0424 | 0.0421 | 0.0458 | 0.0525 | – | – | 0.0431 | 0.0571 | 0.0417
22 | I43R | 0.0355 | 0.0585 | – | 0.0492 | 0.0336 | 0.0333 | 0.0495 | 0.0267 | 0.051 | 0.0452 | 0.0478 | 0.0433 | 0.0467 | – | 0.04 | – | 0.0388 | 0.0364 | 0.0524
23 | T44A | 0.0598 | 0.0337 | – | – | 0.064 | 0.0648 | – | 0.0577 | 0.06 | 0.0631 | 0.0507 | 0.0571 | – | 0.0324 | 0.0529 | 0.0478 | 0.0576 | – | 0.0443
